Experimental data taken from patent US20200101148A1.

Target: PE-conjugated HLA-A*0201 … tetramer (human)
Experiment: flow cytometry, tetramer and anti-CD8 staining of peptide-stimulated PBMC culture

percent of total lymphocyte-gated cells that are CD8+ tetramer+: 64.1%
percent of total lymphocyte-gated cells that are tetramer^high: 2.4%
Substance: CD8+ T-cells induced from HLA-A*0201 donor-derived PBMCs with the H3.3.K27M (26-35) peptide
